Results from PubChem BioAssay (NCI).
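96-well plates; 48 h exposure; 5 concentrations. Endpoints by linear interpolation between flanking doses. Not reached: highest tested concentration assigned. GI50: concentration for 50% inhibition of growth.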 Some entries of the source have several records that differ or are many. The other results are left out here. An entry can have further records. For some of these results: Records of one sample usually come from different ranges of test concentrations, which the source does not state; a value can be the end of its range. For some of these results: Values that stand side by side are repeats in other runs, samples, wells, individuals or studies. What stands in brackets tells the records apart. Letters count within one entry.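 TGI marks complete inhibition of growth.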

Key:
Assay in all cases: NCI tumour cell line growth inhibition, 48 h
MCF7 breast = tested on: MCF7 breast
HOP-62 NSCLC = tested on: HOP-62 NSCLC
TK-10 renal = tested on: TK-10 renal
ACHN renal = tested on: ACHN renal

In the case of `Cn1ncc(Cl)c1-c1cc(C(=O)N[C@H](CN)Cc2cccc(F)c2)sc1Cl`, the GI50 (MCF7 breast) is reported as 58 nM [sample A, mean of 2 tests] and 640 nM [sample B, mean of 2 tests].

`O=C(O)Cc1cccc2c(=O)cc(-c3ccccc3)oc12` was tested, and the GI50 (HOP-62 NSCLC) was 17.9 µM [1 test] and > 916 µM [mean of 4 tests].

With `O=C1c2ccccc2-c2c3c(cc4ccnc1c24)OCO3` the TGI (TK-10 renal) was 9.71 µM [sample A, 1 test] and > 100 µM [sample B, 1 test].

With `Cc1c(CN2CCN(C(=O)[C@H](C)O)CC2)sc2c(N3CCOCC3)nc(-c3cnc(N)nc3)nc12` the TGI (ACHN renal) was > 8.92 µM [sample A, mean of 2 tests] and 869 nM [sample B, 1 test].
